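Briefly, cells in 96-well plates were exposed to five compound concentrations for 48 h, and endpoints were estimated by linear interpolation. GI50 = concentration required for 50% inhibition of growth. TGI: concentration producing complete growth inhibition.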
test system: NCI-H322M lung; test: DTP human tumour cell line panel, 48 h

Compared with O=C(NNc1nc2cc(F)c(F)cc2n2c(CN3CC4CNCC4C3)ccc12)c1cnccn1 (stereo unspecified), O=C(CSc1nnc(-c2ccc(Cl)cc2)n1-c1ccccc1)Nc1cccc(F)c1 is 4.3-fold higher in GI50: 0.829 µM for the first, 3.57 µM for the second.

In the case of COc1cc(/C=C/C(=O)c2cc(OC)c(OC)c(OC)c2)ccc1OCc1ccc(F)cc1, the GI50 is reported as 2.69 µM.

Compared with O=C(NNc1nc2cc(F)c(F)cc2n2c(CN3CC4CNCC4C3)ccc12)c1cnccn1 (stereo unspecified), O=C(CSc1nnc(-c2ccc(Cl)cc2)n1-c1ccccc1)Nc1cccc(F)c1 is higher in TGI: 13.6 µM for the first, > 100 µM for the second.

Compound COc1cc(/C=C/C(=O)c2cc(OC)c(OC)c(OC)c2)ccc1OCc1ccc(F)cc1 has a TGI of 32 µM.

Reference: PubChem BioAssay (NCI)
